{"source": "PubChem BioAssay AID504333", "about": "(National Center for Advancing Translational Sciences (NCATS), 2011)", "note": "In all, about 360,000 compounds went through this assay and about 16,000 (4.4%) were called active. The inconclusive results got no clear call from the source; some entries with a clear call stand among them for comparison. Calls follow the shape of the dose curve; as a rule, active = well fitted inhibition curve with a large enough effect; inconclusive = small, poorly fitted or top-dose-only effect; inactive = no such curve, though single readings can be large or run the other way. A potency beside an inconclusive call is a rough fit, not a confirmed value. Potency is read from the fitted curve at half-maximal effect; tags tell the direction and shape of the fitted curve.", "data": [{"molecular_target": "Bromodomain adjacent to zinc finger domain protein 2B (Homo sapiens) (UniProt Q9UIF8)", "sequence (Q9UIF8 whole entry, looked up, the tested form may be a part)": "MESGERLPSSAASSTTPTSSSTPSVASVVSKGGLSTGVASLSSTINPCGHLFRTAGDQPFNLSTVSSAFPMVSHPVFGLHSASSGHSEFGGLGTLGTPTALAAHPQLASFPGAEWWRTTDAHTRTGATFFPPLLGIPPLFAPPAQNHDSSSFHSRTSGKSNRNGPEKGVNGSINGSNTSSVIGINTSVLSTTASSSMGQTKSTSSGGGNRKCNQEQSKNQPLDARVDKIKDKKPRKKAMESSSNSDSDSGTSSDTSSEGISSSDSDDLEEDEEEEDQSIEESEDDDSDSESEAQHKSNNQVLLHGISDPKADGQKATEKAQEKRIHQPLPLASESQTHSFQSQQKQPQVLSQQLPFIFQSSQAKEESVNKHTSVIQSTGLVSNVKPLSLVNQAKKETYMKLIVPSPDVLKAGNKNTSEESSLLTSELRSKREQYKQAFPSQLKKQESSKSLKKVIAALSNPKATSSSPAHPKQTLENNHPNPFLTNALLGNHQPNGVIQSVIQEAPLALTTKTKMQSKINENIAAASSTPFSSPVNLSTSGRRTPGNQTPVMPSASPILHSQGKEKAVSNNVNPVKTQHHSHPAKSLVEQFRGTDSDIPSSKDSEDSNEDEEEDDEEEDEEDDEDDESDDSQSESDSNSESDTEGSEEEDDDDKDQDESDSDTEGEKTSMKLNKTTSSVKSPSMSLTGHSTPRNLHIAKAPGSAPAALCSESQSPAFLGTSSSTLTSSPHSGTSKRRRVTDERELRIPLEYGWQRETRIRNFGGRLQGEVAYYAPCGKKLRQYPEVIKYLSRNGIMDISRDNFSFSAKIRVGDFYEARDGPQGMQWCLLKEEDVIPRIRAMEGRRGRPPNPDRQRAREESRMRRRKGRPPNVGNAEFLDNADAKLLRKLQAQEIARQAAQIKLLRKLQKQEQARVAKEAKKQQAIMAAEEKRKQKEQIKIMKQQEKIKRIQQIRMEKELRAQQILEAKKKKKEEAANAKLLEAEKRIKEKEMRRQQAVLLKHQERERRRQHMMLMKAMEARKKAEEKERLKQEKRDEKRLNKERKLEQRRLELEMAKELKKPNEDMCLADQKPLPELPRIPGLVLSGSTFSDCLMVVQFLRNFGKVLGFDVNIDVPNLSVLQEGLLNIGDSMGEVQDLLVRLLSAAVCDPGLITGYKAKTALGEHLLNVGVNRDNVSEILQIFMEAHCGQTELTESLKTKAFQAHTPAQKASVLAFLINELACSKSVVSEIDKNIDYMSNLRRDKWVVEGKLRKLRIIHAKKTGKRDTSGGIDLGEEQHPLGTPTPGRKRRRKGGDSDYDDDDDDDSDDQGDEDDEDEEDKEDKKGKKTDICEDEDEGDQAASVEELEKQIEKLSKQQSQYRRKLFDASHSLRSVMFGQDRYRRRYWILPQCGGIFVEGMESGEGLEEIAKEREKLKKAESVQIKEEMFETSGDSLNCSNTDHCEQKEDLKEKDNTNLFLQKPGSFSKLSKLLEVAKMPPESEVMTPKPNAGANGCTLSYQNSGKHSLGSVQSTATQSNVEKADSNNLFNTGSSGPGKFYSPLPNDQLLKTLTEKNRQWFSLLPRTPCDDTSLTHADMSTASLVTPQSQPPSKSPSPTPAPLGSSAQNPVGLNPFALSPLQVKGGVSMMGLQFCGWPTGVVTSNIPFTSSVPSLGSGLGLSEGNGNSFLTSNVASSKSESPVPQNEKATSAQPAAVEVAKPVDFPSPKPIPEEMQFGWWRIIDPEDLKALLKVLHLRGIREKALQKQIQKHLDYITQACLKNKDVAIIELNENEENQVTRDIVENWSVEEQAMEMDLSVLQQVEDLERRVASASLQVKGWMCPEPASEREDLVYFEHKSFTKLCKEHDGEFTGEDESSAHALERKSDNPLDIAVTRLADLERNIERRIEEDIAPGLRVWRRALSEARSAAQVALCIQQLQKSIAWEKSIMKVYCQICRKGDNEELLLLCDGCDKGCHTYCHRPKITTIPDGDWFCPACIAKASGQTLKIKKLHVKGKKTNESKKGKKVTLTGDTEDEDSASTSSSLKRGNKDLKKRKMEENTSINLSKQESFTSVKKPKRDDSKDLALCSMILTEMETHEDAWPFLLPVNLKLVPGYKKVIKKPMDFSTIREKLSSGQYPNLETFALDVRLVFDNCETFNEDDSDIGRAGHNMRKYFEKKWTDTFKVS", "assay": "qHTS Assay for Inhibitors of BAZ2B; also: nearly all actives have a fitted effect of over 60% in size", "settings": "AlphaScreen BAZ2B-H3K14Ac peptide displacement; series mostly up to 114 µM", "summary_of_the_method": "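AlphaScreen displacement: compounds (up to 110uM) incubated 30 min at room temperature with a preformed 50 nM BAZ2B/50 nM biotinylated H3K14Ac peptide complex in PBS pH 7.4 with Tween-20. Donor and acceptor beads at 10 ug/mL final added, 20 min light-protected before reading.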", "values": [{"smiles": "COc1ccc(OC)c(CCNC(=O)CCn2c(=O)c3cccn3c3ccc(F)cc32)c1", "Potency": "inactive"}, {"smiles": "Cc1ccc(OCCNCc2ccccc2)c(C)c1", "Potency": "inconclusive: 50.1 µM [inhibitor, partial curve, poor fit]"}, {"smiles": "CCOc1ccc(C2/C(=C(\\O)c3ccc(OC)c(OC)c3)C(=O)C(=O)N2c2cc(C)on2)cc1OC", "note": "(stereo unspecified)", "Potency": "inactive"}, {"smiles": "O=C1CCC(=O)N1c1ccc(NC2CCN(Cc3ccccc3)CC2)c([N+](=O)[O-])c1", "Potency": "inactive"}, {"smiles": "CC(=O)NC(c1ccc(C(C)C)cc1)c1ccc2cccnc2c1O", "note": "(stereo unspecified)", "Potency": "inconclusive: 39.8 µM [inhibitor, full curve, poor fit]"}, {"smiles": "O=c1cc(CSc2n[nH]c(-c3ccncc3)n2)nc2sccn12", "Potency": "inconclusive: 56.2 µM [inhibitor, partial curve]"}, {"smiles": "CC(C)n1c(SCC(=O)Nc2nc3c(s2)CCCC3)nc2c1c(=O)n(C)c(=O)n2C", "Potency": "inconclusive: 89.1 µM [inhibitor, single point]"}, {"smiles": "CCC1CCCCN1Cc1ccc(OC)c(C)c1", "note": "(stereo unspecified)", "Potency": "active: 56.2 µM"}, {"smiles": "CCCOc1cccc(NC(=O)OC2CCN(C)CC2)c1", "Potency": "inactive"}, {"smiles": "Cc1ccccc1-n1c(-c2ccc3ccccc3n2)n[nH]c1=S", "Potency": "inactive"}, {"smiles": "Cc1ccc(Oc2ncccc2N)c2c1CCC2", "Potency": "inconclusive: 79.4 µM [inhibitor, single point]"}, {"smiles": "COc1cc(C(c2c(C)[nH][nH]c2=O)c2c(C)[nH][nH]c2=O)ccc1OC(C)C", "Potency": "inconclusive: 79.4 µM [inhibitor, single point]"}, {"smiles": "CC(C)OC(=O)c1cc2c(ccn2C)n1CC(=O)N(Cc1ccccc1)c1ccc(F)cc1", "Potency": "active: 39.8 µM"}, {"smiles": "COc1ccc(NC(=O)NS(=O)(=O)c2ccc(C)cc2)cn1", "Potency": "inconclusive: 89.1 µM [inhibitor, single point]"}, {"smiles": "O=C(COc1ccc(Cl)cc1)NCCCn1ccnc1", "Potency": "inconclusive: 89.1 µM [inhibitor, single point]"}, {"smiles": "CNC(=O)c1sc(-c2ccccc2)nc1C", "Potency": "inconclusive: 20 µM [inhibitor, full curve]"}, {"smiles": "Cc1ccc(C)c(CSc2nnc([C@@H]3CCCN3)o2)c1", "Potency": "inconclusive: 89.1 µM [inhibitor, single point]"}, {"smiles": "Cc1ccc(C(=O)C(c2ccccc2)N2Cc3ccccc3C2=N)cc1", "note": "(stereo unspecified)", "Potency": "active: 31.6 µM"}, {"smiles": "O=[N+]([O-])c1cccc2ccc(/C=C/c3cccc(Br)c3)nc12", "Potency": "inconclusive: 35.5 µM [inhibitor, partial curve]"}, {"smiles": "COc1cnc(-c2ccccn2)nc1Oc1c(C)cccc1C", "Potency": "active: 22.4 µM"}, {"smiles": "O=C(CN1CCN(c2ccc(Cl)cc2)CC1)c1ccc2c(c1)OCO2", "Potency": "inconclusive: 0.794 µM [inhibitor, full curve, poor fit]"}]}]}
